Assay results from a collection of fitness landscapes (doi:10.1016/j.celrep.2020.107928).
In all, about 81,000 sequences were measured (“one-hybrid fitness for binding parS DNA”: median about -0.17, highest 2% from about 0.51 on). The list shows a part of the results.

B1: Caulobacter ParB omega fusion; a variant is named by its letters at X, in order, B8GW30 (parent)
chain: MESVVVGEPGMSEGRRGLGRGLSALLGEVDAAPAQAPGEQLGGSREAPIEILQRNPDQPRRTFREEDLEDLSNSIREKGVLQPILVRPSPDTAGEYQIVAGERAWRAAQRAGLKTVPIMVRELDDLAVLEIGIIENVQRADLNVLEEALSYKVLMEKFERTQENIAQTIGKSXSHVANXMRLLXLPDEVQSYLVSGELTAXHARAIAAAADPVALAKQIIEGGLSVRETEALARKAPNLSAGKSKGGRPPRVKDTDTQALESDLSSVLGLDVSIDHRGSTGTLTITYATLEQLDDLCNRLTRGI

Variants of: B1
Experiment: one-hybrid fitness for binding parS DNA (scaled: cognate 1, non-cognate 0); higher = stronger binding
Details: with parS DNA site
Method in brief: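 In E. coli USO, a HIS3 reporter with its site placed 19 bp from the promoter was used to select Caulobacter ParB variants randomised at four specificity codons. Growth lasted 48 hours at 37°C on histidine-free M9 containing 0.1 mM IPTG and 5 mM 3-AT. Fitness was taken as the log change in variant-to-wild-type read ratio from Illumina sequencing of pre- and post-selection plasmids, rescaled between the non-cognate and cognate sites.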

YPLW and TPMG cannot be ordered by “one-hybrid fitness for binding parS DNA” value: no more than 0.2 for the first, no more than 0.2 for the second.

SKLW and CAER cannot be ordered by “one-hybrid fitness for binding parS DNA” value: no more than 0.2 for the first, no more than 0.2 for the second.

SFWS and DYTG cannot be ordered by “one-hybrid fitness for binding parS DNA” value: no more than 0.2 for the first, no more than 0.2 for the second.

SQDG and QSMM cannot be ordered by “one-hybrid fitness for binding parS DNA” value: no more than 0.2 for the first, no more than 0.2 for the second.

RVML and NAPG cannot be ordered by “one-hybrid fitness for binding parS DNA” value: no more than 0.2 for the first, no more than 0.2 for the second.

KIPM and KTNC cannot be ordered by “one-hybrid fitness for binding parS DNA” value: no more than 0.2 for the first, no more than 0.2 for the second.

TYMG and QRYQ cannot be ordered by “one-hybrid fitness for binding parS DNA” value: no more than 0.2 for the first, no more than 0.2 for the second.

NMNT and MSER cannot be ordered by “one-hybrid fitness for binding parS DNA” value: no more than 0.2 for the first, no more than 0.2 for the second.

PHVT and DIWC cannot be ordered by “one-hybrid fitness for binding parS DNA” value: no more than 0.2 for the first, no more than 0.2 for the second.

SPKD and PKDL cannot be ordered by “one-hybrid fitness for binding parS DNA” value: no more than 0.2 for the first, no more than 0.2 for the second.

GADS and YELE cannot be ordered by “one-hybrid fitness for binding parS DNA” value: no more than 0.2 for the first, no more than 0.2 for the second.

TPYS and LVER cannot be ordered by “one-hybrid fitness for binding parS DNA” value: no more than 0.2 for the first, no more than 0.2 for the second.

KLVT and EGQW cannot be ordered by “one-hybrid fitness for binding parS DNA” value: no more than 0.2 for the first, no more than 0.2 for the second.

WNVY and FQLM cannot be ordered by “one-hybrid fitness for binding parS DNA” value: no more than 0.2 for the first, no more than 0.2 for the second.

NGMT and QPKC cannot be ordered by “one-hybrid fitness for binding parS DNA” value: no more than 0.2 for the first, no more than 0.2 for the second.

WAAC and QSQM cannot be ordered by “one-hybrid fitness for binding parS DNA” value: no more than 0.2 for the first, no more than 0.2 for the second.

NKVV and NAVL cannot be ordered by “one-hybrid fitness for binding parS DNA” value: no more than 0.2 for the first, no more than 0.2 for the second.

CITK and PWTK cannot be ordered by “one-hybrid fitness for binding parS DNA” value: no more than 0.2 for the first, no more than 0.2 for the second.

TMVV and EFLG cannot be ordered by “one-hybrid fitness for binding parS DNA” value: no more than 0.2 for the first, no more than 0.2 for the second.

QTQM and VGQS cannot be ordered by “one-hybrid fitness for binding parS DNA” value: no more than 0.2 for the first, no more than 0.2 for the second.

SWLK and QLHH cannot be ordered by “one-hybrid fitness for binding parS DNA” value: no more than 0.2 for the first, no more than 0.2 for the second.

LGCR and NRFG cannot be ordered by “one-hybrid fitness for binding parS DNA” value: no more than 0.2 for the first, no more than 0.2 for the second.

PDCY and QWCR cannot be ordered by “one-hybrid fitness for binding parS DNA” value: no more than 0.2 for the first, no more than 0.2 for the second.

ILDY and AMAL cannot be ordered by “one-hybrid fitness for binding parS DNA” value: no more than 0.2 for the first, no more than 0.2 for the second.

AACF and QQRE cannot be ordered by “one-hybrid fitness for binding parS DNA” value: no more than 0.2 for the first, no more than 0.2 for the second.

TLQC and VFPI cannot be ordered by “one-hybrid fitness for binding parS DNA” value: no more than 0.2 for the first, no more than 0.2 for the second.

PATR and FAPF cannot be ordered by “one-hybrid fitness for binding parS DNA” value: no more than 0.2 for the first, no more than 0.2 for the second.

TIHL and NNVR cannot be ordered by “one-hybrid fitness for binding parS DNA” value: no more than 0.2 for the first, no more than 0.2 for the second.

SSVQ and RTSI cannot be ordered by “one-hybrid fitness for binding parS DNA” value: no more than 0.2 for the first, no more than 0.2 for the second.

KRHV and DQDV cannot be ordered by “one-hybrid fitness for binding parS DNA” value: no more than 0.2 for the first, no more than 0.2 for the second.

DTNN and QMHY cannot be ordered by “one-hybrid fitness for binding parS DNA” value: no more than 0.2 for the first, no more than 0.2 for the second.

Compared with RFQN, RFNP is lower in “one-hybrid fitness for binding parS DNA” value: 0.457 for the first, no more than 0.2 for the second.

SSRS and TSTF cannot be ordered by “one-hybrid fitness for binding parS DNA” value: no more than 0.2 for the first, no more than 0.2 for the second.

SNNS and NHPI cannot be ordered by “one-hybrid fitness for binding parS DNA” value: no more than 0.2 for the first, no more than 0.2 for the second.

First: RNWA
Second: TNYY
The “one-hybrid fitness for binding parS DNA” value of the first is higher: 0.294 for the first, no more than 0.2 for the second.

RQFV and NQQK cannot be ordered by “one-hybrid fitness for binding parS DNA” value: no more than 0.2 for the first, no more than 0.2 for the second.

NRYV and VRLN cannot be ordered by “one-hybrid fitness for binding parS DNA” value: no more than 0.2 for the first, no more than 0.2 for the second.

VDNP and GRTC cannot be ordered by “one-hybrid fitness for binding parS DNA” value: no more than 0.2 for the first, no more than 0.2 for the second.

SWSN and RHPD cannot be ordered by “one-hybrid fitness for binding parS DNA” value: no more than 0.2 for the first, no more than 0.2 for the second.

RNTL and HRMT cannot be ordered by “one-hybrid fitness for binding parS DNA” value: no more than 0.2 for the first, no more than 0.2 for the second.

TDKC and KSRK cannot be ordered by “one-hybrid fitness for binding parS DNA” value: no more than 0.2 for the first, no more than 0.2 for the second.

GSIS and HAPR cannot be ordered by “one-hybrid fitness for binding parS DNA” value: no more than 0.2 for the first, no more than 0.2 for the second.

SGAS and WYRR cannot be ordered by “one-hybrid fitness for binding parS DNA” value: no more than 0.2 for the first, no more than 0.2 for the second.

VHPC and TYTY cannot be ordered by “one-hybrid fitness for binding parS DNA” value: no more than 0.2 for the first, no more than 0.2 for the second.

KTGM and LILL cannot be ordered by “one-hybrid fitness for binding parS DNA” value: no more than 0.2 for the first, no more than 0.2 for the second.

HRDI and RPQR cannot be ordered by “one-hybrid fitness for binding parS DNA” value: no more than 0.2 for the first, no more than 0.2 for the second.

TRWY and CFTC cannot be ordered by “one-hybrid fitness for binding parS DNA” value: no more than 0.2 for the first, no more than 0.2 for the second.

FDKN and ADSV cannot be ordered by “one-hybrid fitness for binding parS DNA” value: no more than 0.2 for the first, no more than 0.2 for the second.

RPNC and VMDE cannot be ordered by “one-hybrid fitness for binding parS DNA” value: no more than 0.2 for the first, no more than 0.2 for the second.

CSNG and CLTG cannot be ordered by “one-hybrid fitness for binding parS DNA” value: no more than 0.2 for the first, no more than 0.2 for the second.

SKSV and PQHE cannot be ordered by “one-hybrid fitness for binding parS DNA” value: no more than 0.2 for the first, no more than 0.2 for the second.

QELI and GRLI cannot be ordered by “one-hybrid fitness for binding parS DNA” value: no more than 0.2 for the first, no more than 0.2 for the second.

VNKR and TVMI cannot be ordered by “one-hybrid fitness for binding parS DNA” value: no more than 0.2 for the first, no more than 0.2 for the second.

KMSE and WLDW cannot be ordered by “one-hybrid fitness for binding parS DNA” value: no more than 0.2 for the first, no more than 0.2 for the second.

QMCT and QDHA cannot be ordered by “one-hybrid fitness for binding parS DNA” value: no more than 0.2 for the first, no more than 0.2 for the second.

VIGR and ELCG cannot be ordered by “one-hybrid fitness for binding parS DNA” value: no more than 0.2 for the first, no more than 0.2 for the second.

PHNR and LLLW cannot be ordered by “one-hybrid fitness for binding parS DNA” value: no more than 0.2 for the first, no more than 0.2 for the second.

LWEA and FTPA cannot be ordered by “one-hybrid fitness for binding parS DNA” value: no more than 0.2 for the first, no more than 0.2 for the second.

FWTG and MADS cannot be ordered by “one-hybrid fitness for binding parS DNA” value: no more than 0.2 for the first, no more than 0.2 for the second.

FPTR and EEAY cannot be ordered by “one-hybrid fitness for binding parS DNA” value: no more than 0.2 for the first, no more than 0.2 for the second.

KTAS and WWTL cannot be ordered by “one-hybrid fitness for binding parS DNA” value: no more than 0.2 for the first, no more than 0.2 for the second.

YRMG and ARHN cannot be ordered by “one-hybrid fitness for binding parS DNA” value: no more than 0.2 for the first, no more than 0.2 for the second.

QKYP and QVIA cannot be ordered by “one-hybrid fitness for binding parS DNA” value: no more than 0.2 for the first, no more than 0.2 for the second.

DGLR and CLVI cannot be ordered by “one-hybrid fitness for binding parS DNA” value: no more than 0.2 for the first, no more than 0.2 for the second.

QCCP and MYYT cannot be ordered by “one-hybrid fitness for binding parS DNA” value: no more than 0.2 for the first, no more than 0.2 for the second.

NMLW and HCCG cannot be ordered by “one-hybrid fitness for binding parS DNA” value: no more than 0.2 for the first, no more than 0.2 for the second.

KARH and TKAG cannot be ordered by “one-hybrid fitness for binding parS DNA” value: no more than 0.2 for the first, no more than 0.2 for the second.

LRFA and AQML cannot be ordered by “one-hybrid fitness for binding parS DNA” value: no more than 0.2 for the first, no more than 0.2 for the second.

FTPC and RMVR cannot be ordered by “one-hybrid fitness for binding parS DNA” value: no more than 0.2 for the first, no more than 0.2 for the second.

First: RAPC
Second: VFGM
The “one-hybrid fitness for binding parS DNA” value of the first is higher: 0.485 for the first, no more than 0.2 for the second.

LVVQ and CVCV cannot be ordered by “one-hybrid fitness for binding parS DNA” value: no more than 0.2 for the first, no more than 0.2 for the second.

GMHN and MVYT cannot be ordered by “one-hybrid fitness for binding parS DNA” value: no more than 0.2 for the first, no more than 0.2 for the second.

HYSE and EDPG cannot be ordered by “one-hybrid fitness for binding parS DNA” value: no more than 0.2 for the first, no more than 0.2 for the second.

CSTM and HWHR cannot be ordered by “one-hybrid fitness for binding parS DNA” value: no more than 0.2 for the first, no more than 0.2 for the second.

PAGI and ETTQ cannot be ordered by “one-hybrid fitness for binding parS DNA” value: no more than 0.2 for the first, no more than 0.2 for the second.

SSCI and NVWC cannot be ordered by “one-hybrid fitness for binding parS DNA” value: no more than 0.2 for the first, no more than 0.2 for the second.

VKVC was tested, and the “one-hybrid fitness for binding parS DNA” value was no more than 0.2.
